Binding signal data for 54 sequences are collected here from PMC7819943, “Rice protein-binding microarrays: a tool to detect cis-acting elements near promoter regions in rice”.

This is one part of the list.

This assay deals with T1, OsWOX13 (Oryza sativa, UniProt Q5QMM3 1-267).
T1 sequence: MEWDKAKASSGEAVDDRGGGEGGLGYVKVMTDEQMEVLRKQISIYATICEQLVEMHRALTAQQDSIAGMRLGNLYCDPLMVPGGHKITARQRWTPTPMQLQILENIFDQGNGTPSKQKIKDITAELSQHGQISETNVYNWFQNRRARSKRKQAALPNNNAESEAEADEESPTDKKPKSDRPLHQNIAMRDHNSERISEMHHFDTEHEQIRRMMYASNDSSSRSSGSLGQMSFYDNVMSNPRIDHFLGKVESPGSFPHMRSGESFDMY
Description: protein-binding microarray (RPBM); PBS, 2% BSA, 51.3 ng/ul salmon testes DNA, 50 uM zinc acetate, 200 nM TF, 25 C, 1 h; high values mean tight binding. Particulars: protein: recombinant; tags: N-terminal polyhistidine and DsRed monomer fusion (pET32a); label: CyDye5-dUTP incorporated in the synthesized complementary strand; 3' TTTTT single-stranded linker to array surface; dsDNA, one strand shown. The procedure, abridged:
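The binding signal is fluorescence intensity per array feature (arbitrary units). Readings came from an Axon 4000B scanner after a washed, 2% BSA-blocked, double-stranded custom Agilent array had been incubated for 1 h at 25 °C with 200 nM protein and 50 µM zinc acetate. The protein was a Ni–NTA-purified transcription factor fused N-terminally to polyhistidine and DsRed, expressed in E. coli BL21-CodonPlus.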
Take “TCTAGAATTGATCATTTTATGAAAGATGAAGTCACTACGTCGGAGTCACCTAGTGCAG”: the binding signal is 18500 fluorescence intensity (a.u.).

Consider “GTGTACAGCAAATTTGCTGTAATCATGGGCTAATATTTTGCGGAGTCACCTAGTGCAG”, for which the binding signal was 7210 fluorescence intensity (a.u.).

For “GCAGGTGATATACCTAAATTGAAAAGTAATAGGTGATTCACGGAGTCACCTAGTGCAG”, the binding signal was 7270 fluorescence intensity (a.u.).

“ACGCTGATTCAATTGTCATCCAATTTCTCGATTTATCTGTCGGAGTCACCTAGTGCAG”: the binding signal is 7120 fluorescence intensity (a.u.).

Turning to “TGACCAATTAACATATTTAACCACTGTAAATCTAATCCTGCGGAGTCACCTAGTGCAG”, the binding signal is 18300 fluorescence intensity (a.u.).

For the sequence “TCGATTGAATTTAGAATGCAATGTCTACTTCAATGAAGGACGGAGTCACCTAGTGCAG”, the binding signal is 14700 fluorescence intensity (a.u.).

In the case of “GCTTGACTGACAAGCTATGATTAAATTTGCATGACGAGTTCGGAGTCACCTAGTGCAG”, the binding signal was 25600 fluorescence intensity (a.u.).

Regarding “ACCTGAATGACTGAATCCTATCTTGACGCTGCAATCTGGACGGAGTCACCTAGTGCAG”, the binding signal was 18500 fluorescence intensity (a.u.).

Regarding “TATCAATAATTAGTGTTATGAATAATAAATAAATTGGGTGCGGAGTCACCTAGTGCAG”, the binding signal is 29600 fluorescence intensity (a.u.).

On to “TCTTATTAATGATGGGCACTTTGATATTTTCTTCTTTCACCGGAGTCACCTAGTGCAG”, for which the binding signal is 5460 fluorescence intensity (a.u.).

With “GATAATCTTGTTTTATCCAAGATTAGATAGTACTACTAGTCGGAGTCACCTAGTGCAG”, the binding signal is 3250 fluorescence intensity (a.u.).

Turning to “CGGGTAGGGTGGGGTGGGGCGGGGTGGGGTTGGCGGCGACCGGAGTCACCTAGTGCAG”, the binding signal is 23900 fluorescence intensity (a.u.).

On to “TTTTAGATTAGATTCTAAGAAGTTGTAGTTGTAGAATCTACGGAGTCACCTAGTGCAG”, for which the binding signal was 5200 fluorescence intensity (a.u.).

With “TATTAATGGTGACTTGGTGATTATGGAAGAAGTTAACCCGCGGAGTCACCTAGTGCAG”, the binding signal was 12300 fluorescence intensity (a.u.).

In the case of “TCATGGCCTAATTAGTCTCAAAAGATTCGTCTCGCGATTTCGGAGTCACCTAGTGCAG”, the binding signal is 4840 fluorescence intensity (a.u.).

In the case of “ATAGATTAAATGATAAAATATGAATAATACTTTATGCGTACGGAGTCACCTAGTGCAG”, the binding signal is 24500 fluorescence intensity (a.u.).

Consider “AGATGAATTTATTAAGCCTAATTAATACATCATTAGTACACGGAGTCACCTAGTGCAG”, for which the binding signal was 5650 fluorescence intensity (a.u.).

As for “TGAAACATGTGCTTGATTATGTTGACATGTTGAAGAAGTACGGAGTCACCTAGTGCAG”, the binding signal is 6600 fluorescence intensity (a.u.).

Regarding “ATAGCTTAACTGGTTACATTCCGTGTGATGGAACCAGCTCCGGAGTCACCTAGTGCAG”, the binding signal is 4170 fluorescence intensity (a.u.).

On to “ATATTAAATTAATCATTAAATGGTCTGGTTTTAATATTGTCGGAGTCACCTAGTGCAG”, for which the binding signal is 31300 fluorescence intensity (a.u.).

Turning to “TTATATGATTGCTAACAGATGAACGTCTTGTGTTGCTTTGCGGAGTCACCTAGTGCAG”, the binding signal is 46600 fluorescence intensity (a.u.).

For the sequence “CTACCATCCGGATCAAACATCAATCAACCAAAACAGCCTCCGGAGTCACCTAGTGCAG”, the binding signal is 7770 fluorescence intensity (a.u.).

Turning to “TTCTTAAAGGTAATTGGATGTGCAGTATAATTCTTAAAAGCGGAGTCACCTAGTGCAG”, the binding signal is 6420 fluorescence intensity (a.u.).

With “AACTTAATCACAACCCTCCACCACTCACTTCTAACTACTTCGGAGTCACCTAGTGCAG”, the binding signal is 3550 fluorescence intensity (a.u.).

“ACCAAATTAATTAACCCTATCTCTCGATCTCTCCCTCTCTCGGAGTCACCTAGTGCAG”: the binding signal was 37200 fluorescence intensity (a.u.).

“GATCGATCATTAGATTTATTTATAAGTCAAATTAATAAGCCGGAGTCACCTAGTGCAG”: the binding signal is 3710 fluorescence intensity (a.u.).

In the case of “TTTAATTCCGAATTTCAGTTATTTCCTAATTGTATTTCTACGGAGTCACCTAGTGCAG”, the binding signal is 6130 fluorescence intensity (a.u.).

“GTAGTGTTGACTGGAAATCAGAGATATTGGAGGCTGCAGACGGAGTCACCTAGTGCAG”: the binding signal is 8080 fluorescence intensity (a.u.).

As for “TCCATGGCAATCATTGGTTGAGTCCGGTGAAGCCACCAACCGGAGTCACCTAGTGCAG”, the binding signal was 15500 fluorescence intensity (a.u.).

As to “TTTGCATTTGTGTGATTAGCGACGGGCGATAGCGATCGAGCGGAGTCACCTAGTGCAG”, the binding signal was 5420 fluorescence intensity (a.u.).

“GTAATTTGTTTTGTTATTAGACTACGTTTAATACTTCAAACGGAGTCACCTAGTGCAG”: the binding signal is 3740 fluorescence intensity (a.u.).

For “GCGGAGGAGGTGGTGGTGGTGGAGGAGGAGGAGGCCAAGGCGGAGTCACCTAGTGCAG”, the binding signal was 4960 fluorescence intensity (a.u.).

“ATTAATAAATAATTTATTATAAATTAAATTTATTGGATGACGGAGTCACCTAGTGCAG”: the binding signal is 40300 fluorescence intensity (a.u.).

For “AATCAAGAGATGATTGATAATTGTTTATATGGATGAATTACGGAGTCACCTAGTGCAG”, the binding signal was 24100 fluorescence intensity (a.u.).

Consider “ACTCTCTTAACTGATTATCGCCGCGTACAGTATATGCAAGCGGAGTCACCTAGTGCAG”, for which the binding signal is 9530 fluorescence intensity (a.u.).

“AATGACAGGGGTAATAAAGGTTATTTCCTTGTTGTTTCGCCGGAGTCACCTAGTGCAG”: the binding signal was 6710 fluorescence intensity (a.u.).

Regarding “ATATGATGTACCTAATTATGTGAATAAGATTATTTACAATCGGAGTCACCTAGTGCAG”, the binding signal is 23400 fluorescence intensity (a.u.).

Consider “TCTTAAATTAACTTTAAAATTAGATTTGAAAATTCAAATTCGGAGTCACCTAGTGCAG”, for which the binding signal was 15200 fluorescence intensity (a.u.).

As for “GCTTGGCACTTGATTTGCTTAGTTTAGCAATATCATCATTCGGAGTCACCTAGTGCAG”, the binding signal is 3740 fluorescence intensity (a.u.).

As for “TGTTGACAAAATTAGCTGTTGCAACGCATACAGACTTCAACGGAGTCACCTAGTGCAG”, the binding signal is 7410 fluorescence intensity (a.u.).

For “TCGTCGATGATTACAGCTGTTTCATGTGGTTGTCACTGCTCGGAGTCACCTAGTGCAG”, the binding signal is 7700 fluorescence intensity (a.u.).

Regarding “ATCATAAATTTCTCTTATATAATTTCGCTTATATGGTTATCGGAGTCACCTAGTGCAG”, the binding signal was 6670 fluorescence intensity (a.u.).

As to “CACATCCATATTTGCAATTAATTTACAACCTAATTTACATCGGAGTCACCTAGTGCAG”, the binding signal was 3360 fluorescence intensity (a.u.).

In the case of “GTGCCAATCAATAATGCTCAGGAAGAGCAAATATGGACCGCGGAGTCACCTAGTGCAG”, the binding signal is 16500 fluorescence intensity (a.u.).

Take “AAGTAATTATTAATTCTTTTCCTATCATTTGATTCATTGTCGGAGTCACCTAGTGCAG”: the binding signal is 29000 fluorescence intensity (a.u.).

In the case of “TTTATCTAATTAAAATATATTTATAGCTGACTAATAGTCTCGGAGTCACCTAGTGCAG”, the binding signal was 12200 fluorescence intensity (a.u.).

For the sequence “AGCAACGGATTAACATATGATTAATTAAGTATTAATAAAACGGAGTCACCTAGTGCAG”, the binding signal is 9340 fluorescence intensity (a.u.).

Turning to “AACACATTGGATTGATTGATCTGTCGCGGAACAGATTGACCGGAGTCACCTAGTGCAG”, the binding signal was 52300 fluorescence intensity (a.u.).

Turning to “TAGCCGTCCAAATCAAATCAGTGGCTAGGATTGCTTGACGCGGAGTCACCTAGTGCAG”, the binding signal was 3870 fluorescence intensity (a.u.).

Turning to “TGCTTCTAAATTAGTCACTCTGATTTGCCCTTGCCACCAACGGAGTCACCTAGTGCAG”, the binding signal is 25800 fluorescence intensity (a.u.).

Take “ACCAAGTAATTGATATCTAGAAATCCGATACCTAGTACCACGGAGTCACCTAGTGCAG”: the binding signal is 55000 fluorescence intensity (a.u.).

Consider “TTGTTGGAATTGAAGTGGATTACATATATGTAGTGCGTTCCGGAGTCACCTAGTGCAG”, for which the binding signal is 3830 fluorescence intensity (a.u.).

Regarding “AGTAGAATTTATGTTAATGTGGATAAAATTTGACATCAAACGGAGTCACCTAGTGCAG”, the binding signal is 4620 fluorescence intensity (a.u.).

Take “CCCGGTTTGATCGATCAATCAGCTCATGATCAACACTAAACGGAGTCACCTAGTGCAG”: the binding signal was 15600 fluorescence intensity (a.u.).
